Source: patent publication US11155596B2, “Polypeptide” (AFFIBODY AB, priority 2016, dated 2021)
Positions count from the first letter of the chain named.

B1: [^18F]AIF-NOTA-Z15168: Z15168-Cys conjugated with NOTA at C-terminal cysteine and radiolabeled with [^18F]AIF (conjugate)
chain: AEAKYAKERNNAAFEILRLPNLTNGQHWAFIWKLADDPSQSSELLSEAKKLNDSQAPKVDC
modifications: NOTA-maleimide on the unique C-terminal cysteine, labelled with [18F]AIF
notes: Z15168-Cys conjugated with NOTA at C-terminal cysteine and radiolabeled with [^18F]AIF
B2: [^18F]AIF-NOTA-Z18609: Z18609-Cys conjugated with NOTA at C-terminal cysteine and radiolabeled with [^18F]AIF (conjugate)
chain: B1 chain with N11A, F14Y, R18Y, G25A, H27K, A35D
modifications: NOTA-maleimide on the unique C-terminal cysteine, labelled with [18F]AIF
notes: Z18609-Cys conjugated with NOTA at C-terminal cysteine and radiolabeled with [^18F]AIF

Details: rhesus monkey, in vivo
Description: Fasted rhesus monkeys were sedated with Ketamine (10 mg/kg, intramuscular). An intrevenous catheter was inserted into the right and left saphenous veins and the animals were maintained on propofol anesthesia (5 mg/kg for induction and 0.45 mg/kg/min throughout the scanning procedure). Following the initial induction with propofol, the animal was intubated and maintained on ventilated oxygen/air gas mixture at approximately 10 cm^3/kg/breath, and 23 respirations per minute. Animals were instrumented with a temperature probe, a pulse oximeter and an end tidal CO2 monitor. Body temperature was maintained using K-module heating pads. General fluid therapy was maintained with Lactated Ringer's solution (10 ml/kg/h i.v.) throughout the scanning procedure. […] Whole body dynamic scan was initiated at the start of the tracer injection and acquired for 180 min using a Siemens Biograph 64 TPTV PET/CT scanner. Whole body reconstruction was performed using the PET/CT scanner vendor supplied software. PET image analysis was performed using customized Matlab based software.

| Molecule | lymph node and spleen targeting |
| --- | --- |
| B1 | lymph node and spleen targeting was observed |
| B2 | lymph node and spleen targeting was observed |
